# Experimental data as given in PubChem BioAssay AID588855 (National Center for Advancing Translational Sciences (NCATS), 2011).
# Out of some 410,000 compounds screened, about 5,000 (1.2%) were called active. This list was built around the results that the source calls inconclusive (neither active nor inactive); the mix of calls is not that of the screen. Calls follow the shape of the dose curve; as a rule, active = well fitted inhibition curve with a large enough effect; inconclusive = small, poorly fitted or top-dose-only effect; inactive = no such curve, though single readings can be large or run the other way. A potency beside an inconclusive call is a rough fit, not a confirmed value.
# Test: qHTS for Inhibitors of TGF-b; also: nearly all actives have a fitted effect of over 65% in size
# Conditions: HepG2 CAGA-GFP TGF-b/SMAD3 reporter, GFP fluorescence, 18 h, TGF-beta stimulated, 500 pg/mL final; series mostly up to 46.1 µM; activity, negative = inhibition: at the top concentration
# Procedure, shortened: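 Inhibition was scored as loss of TGF-beta-induced (500 pg/mL final, 18 hours, 37 degrees C) GFP in HEPG2 cells carrying a CAGA-GFP reporter, in DMEM with 1% FBS. Well GFP was summed per cell; Activity was normalised to unstimulated and stimulated DMSO wells, then concentration-response fitting.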
# % is scaled to controls: 0 for no effect and ±100 for the full control effect; potency is read from the fitted curve at half-maximal effect; tags tell the direction and shape of the fitted curve.
Compound,Potency,"activity, negative = inhibition"
CCCCNC(=O)CSc1nnc(C)c2c(C)n(-c3ccccc3)nc12,"inconclusive: 35.5 µM [inhibitor, single point]",
Cc1ccc2nc(SCC(=O)Nc3cc([N+](=O)[O-])ccc3F)[nH]c2c1,"inconclusive: 35.5 µM [inhibitor, partial curve, poor fit]",
CSc1ccc(S(=O)(=O)N2c3ccccc3CC2C)cc1 (stereo not given),"inconclusive: 8.91 µM [inhibitor, partial curve]",
Cc1ccc(C(=O)N2CCC3(CC2)Oc2ccc(Cl)cc2C(=O)C32CC(c3cccnc3)=NO2)s1 (stereo not given),"inconclusive: 35.5 µM [inhibitor, single point]",
CCCCNC(=O)/C(=C\c1ccc([N+](=O)[O-])o1)NC(=O)c1ccccc1,"inconclusive: 17.8 µM [inhibitor, single point]",
CCCCCCc1ccc(N2C[C@H](C)[C@@H](CC(=O)NCc3ccccc3)C2=O)cc1,"inconclusive: 1.78 µM [inhibitor, partial curve, poor fit]",
COc1ccc(Cl)cc1NC(=O)CN(C)C(=O)CCNC(=O)c1ccccc1OC,,inactive: 7.67%
CC(C)(C)OC(=O)NCCCCCNC(=O)c1[nH]cnc1C(=O)N[C@@H](CCCCNC(=O)OC(C)(C)C)C(=O)OC(C)(C)C,"inconclusive: 20 µM [inhibitor, single point]",
O=C(O)c1ccccc1C(=O)Nc1ccccn1,,inactive: -1.83%
Cc1ccc(N=Nc2c(N)nn(-c3ccccc3)c2N)cc1,,inactive: -20%
COc1ccc(S(=O)(=O)Cc2ccc(C(=O)N3CCc4ccccc4C3)o2)cc1,"inconclusive: 6.31 µM [inhibitor, single point]",
Cc1ccccc1C(=O)NC1CC2CCCC(C1)N2Cc1ccc(Cl)cc1 (stereo not given),,inactive: 1.24%
CC(C)Sc1ncc(Cl)c(C(=O)Nc2ccc(S(=O)(=O)N(C)c3ccccc3)cc2)n1,,inactive: -20.7%
O=C1C(Cl)=C(NCc2ccco2)C(=O)c2ccccc21,active: 11.2 µM,
CCn1c(SCC(=O)N2CCN(c3ccc(F)cc3)CC2)nnc1-c1ccncc1,,inactive: -16.7%
CC(NC(=O)c1ccc(CS(C)(=O)=O)cc1)C1CC2CCC1C2 (stereo not given),,inactive: 14.4%
Cc1c(C(=O)N/N=C/c2ccc(Cl)cc2)[nH]c2ccc(Cl)cc12,active: 2 µM,
COc1ccc2[nH]c(C)c(CCN(Cc3cccs3)C(=S)Nc3ccccc3OC)c2c1,"inconclusive: 35.5 µM [inhibitor, single point]",
Cc1cccc(N(C)C(=O)CCNS(=O)(=O)c2ccc3c(c2)CCN3C(=O)C2CC2)c1,,inactive: -4.21%
N#Cc1ccc(CSc2nc3c(c(=O)[nH]2)CCCC3)cc1,,inactive: 17.1%
